Source: the supplement of paper PMC8728848
Some of the results follow.

Assays:
Experiment in all cases: glycan array binding signal (z-score within array); higher = stronger binding
Settings in all cases: glycan notation: IUPAC condensed, linker removed
Gal(a1-2)Gal = biological target: Gal(a1-2)Gal
Method in brief: (§1)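 Glycan array data came from 3228 arrays in the Consortium for Functional Glycomics database, and only arrays with an available protein sequence were kept. Glycan names were put into IUPAC-condensed notation, and columns mapping to the same glycan were averaged. The binding signal is a within-array Z-score, averaged across arrays of one protein sequence run at different concentrations or buffers and across linkers. A negative Z-score can be read as non-binding.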

Gal(a1-3)Gal = biological target: Gal(a1-3)Gal
Method in brief: as §1

Gal(a1-3)Gal(b1-3)GlcNAc = biological target: Gal(a1-3)Gal(b1-3)GlcNAc
Method in brief: as §1

Gal(a1-3)Gal(b1-4)Glc = biological target: Gal(a1-3)Gal(b1-4)Glc
Method in brief: as §1

Gal(a1-3)Gal(b1-4)GlcNAc = biological target: Gal(a1-3)Gal(b1-4)GlcNAc
Method in brief: as §1

[1] = biological target: Gal(a1-3)Gal(b1-4)[Fuc(a1-3)]GlcNAc
Method in brief: as §1

Gal(a1-3)GalNAc = biological target: Gal(a1-3)GalNAc
Method in brief: as §1

[2] = biological target: Gal(a1-3)[Gal(a1-4)]Gal(b1-4)GlcNAc
Method in brief: as §1

Gal(a1-4)Gal(b1-4)Glc = biological target: Gal(a1-4)Gal(b1-4)Glc
Method in brief: as §1

Gal(a1-4)Gal(b1-4)GlcNAc = biological target: Gal(a1-4)Gal(b1-4)GlcNAc
Method in brief: as §1

Gal(a1-4)GlcNAc = biological target: Gal(a1-4)GlcNAc
Method in brief: as §1

Gal(a1-6)Glc = biological target: Gal(a1-6)Glc
Method in brief: as §1

Gal(b1-2)Gal = biological target: Gal(b1-2)Gal
Method in brief: as §1

Gal(b1-3)Gal = biological target: Gal(b1-3)Gal
Method in brief: as §1

Gal(b1-3)GalNAc = biological target: Gal(b1-3)GalNAc
Method in brief: as §1

[3] = biological target: Gal(b1-3)GalNAc(b1-3)Gal(a1-4)Gal(b1-4)Glc
Method in brief: as §1

[4] = biological target: Gal(b1-3)GalNAc(b1-4)Gal(b1-4)Glc
Method in brief: as §1

[5] = biological target: Gal(b1-3)GalNAc(b1-4)[Neu5Ac(a2-3)]Gal(b1-4)Glc
Method in brief: as §1

Gal(b1-3)GlcNAc = biological target: Gal(b1-3)GlcNAc
Method in brief: as §1

[6] = biological target: Gal(b1-3)GlcNAc(b1-3)Gal(b1-4)Glc
Method in brief: as §1

[7] = biological target: Gal(b1-3)GlcNAc(b1-3)Gal(b1-4)GlcNAc
Method in brief: as §1

[8] = biological target: Gal(b1-3)[Fuc(a1-4)]GlcNAc
Method in brief: as §1

[9] = biological target: Gal(b1-3)[Fuc(a1-4)]GlcNAc(b1-3)Gal(b1-4)GlcNAc
Method in brief: as §1

[10] = biological target: Gal(b1-3)[Fuc(a1-4)]GlcNAc(b1-3)Gal(b1-4)[Fuc(a1-3)]GlcNAc
Method in brief: as §1

[11] = biological target: Gal(b1-3)[GlcNAc(b1-6)]GalNAc
Method in brief: as §1

[12] = biological target: Gal(b1-3)[Neu5Ac(a2-6)]GalNAc
Method in brief: as §1

[13] = biological target: Gal(b1-3)[Neu5Ac(a2-6)]GlcNAc(b1-6)Gal(b1-4)Glc
Method in brief: as §1

[14] = biological target: Gal(b1-3)[Neu5Ac(b2-6)]GalNAc
Method in brief: as §1

[15] = biological target: Gal(b1-4)GalNAc(a1-3)[Fuc(a1-2)]Gal(b1-4)GlcNAc
Method in brief: as §1

[16] = biological target: Gal(b1-4)GalNAc(b1-3)[Fuc(a1-2)]Gal(b1-4)GlcNAc
Method in brief: as §1

Gal(b1-4)Glc = biological target: Gal(b1-4)Glc
Method in brief: as §1

Gal(b1-4)Glc6S = biological target: Gal(b1-4)Glc6S
Method in brief: as §1

Gal(b1-4)GlcNAc = biological target: Gal(b1-4)GlcNAc
Method in brief: as §1

[17] = biological target: Gal(b1-4)GlcNAc(b1-2)Man(a1-3)[Gal(b1-4)GlcNAc(b1-2)Man(a1-6)]Man(b1-4)GlcNAc(b1-4)GlcNAc
Method in brief: as §1

[18] = biological target: Gal(b1-4)GlcNAc(b1-3)Gal(b1-4)Glc
Method in brief: as §1

[19] = biological target: Gal(b1-4)GlcNAc(b1-3)Gal(b1-4)GlcNAc
Method in brief: as §1

[20] = biological target: Gal(b1-4)GlcNAc(b1-3)Gal(b1-4)GlcNAc(b1-3)Gal(b1-4)GlcNAc
Method in brief: as §1

[21] = biological target: Gal(b1-4)GlcNAc(b1-3)Gal(b1-4)[Fuc(a1-3)]GlcNAc(b1-3)Gal(b1-4)[Fuc(a1-3)]GlcNAc
Method in brief: as §1

B1: LKITALY (Gibberella zeae) (protein)
chain: MGNFHESSNNIWLEDGHILHAECGNGEGDYVESTLDLDYYIGNDDGSFSWGGENFSGSASNITLDIEGDDNIPVLRAELNPMDGDPVEANVNLSERIGNDCGTLIFLA
Gal(a1-2)Gal
  glycan array binding signal (z-score): -0.354
Gal(a1-3)Gal
  glycan array binding signal (z-score): -0.354
Gal(a1-3)Gal(b1-3)GlcNAc
  glycan array binding signal (z-score): -0.346
Gal(a1-3)Gal(b1-4)Glc
  glycan array binding signal (z-score): -0.356
Gal(a1-3)Gal(b1-4)GlcNAc
  glycan array binding signal (z-score): -0.368
[1]
  glycan array binding signal (z-score): -0.348
Gal(a1-3)GalNAc
  glycan array binding signal (z-score): -0.357
[2]
  glycan array binding signal (z-score): -0.363
Gal(a1-4)Gal(b1-4)Glc
  glycan array binding signal (z-score): -0.357
Gal(a1-4)Gal(b1-4)GlcNAc
  glycan array binding signal (z-score): -0.356
Gal(a1-4)GlcNAc
  glycan array binding signal (z-score): -0.345
Gal(a1-6)Glc
  glycan array binding signal (z-score): -0.352
Gal(b1-2)Gal
  glycan array binding signal (z-score): -0.358
Gal(b1-3)Gal
  glycan array binding signal (z-score): -0.353
Gal(b1-3)GalNAc
  glycan array binding signal (z-score): -0.345
[3]
  glycan array binding signal (z-score): -0.353
[4]
  glycan array binding signal (z-score): -0.358
[5]
  glycan array binding signal (z-score): -0.359
Gal(b1-3)GlcNAc
  glycan array binding signal (z-score): -0.357
[6]
  glycan array binding signal (z-score): -0.35
[7]
  glycan array binding signal (z-score): -0.355
[8]
  glycan array binding signal (z-score): -0.356
[9]
  glycan array binding signal (z-score): -0.337
[10]
  glycan array binding signal (z-score): -0.36
[11]
  glycan array binding signal (z-score): -0.346
[12]
  glycan array binding signal (z-score): -0.348
[13]
  glycan array binding signal (z-score): -0.353
[14]
  glycan array binding signal (z-score): -0.358
[15]
  glycan array binding signal (z-score): -0.353
[16]
  glycan array binding signal (z-score): -0.365
Gal(b1-4)Glc
  glycan array binding signal (z-score): -0.357
Gal(b1-4)Glc6S
  glycan array binding signal (z-score): 1.85
Gal(b1-4)GlcNAc
  glycan array binding signal (z-score): -0.353
[17]
  glycan array binding signal (z-score): -0.328
[18]
  glycan array binding signal (z-score): -0.361
[19]
  glycan array binding signal (z-score): -0.345
[20]
  glycan array binding signal (z-score): -0.358
[21]
  glycan array binding signal (z-score): -0.358
